Measurements from ChEMBL document CHEMBL5606460, “ASAP - DENV-2 NS2B-NS3 protease fluorescence single point” (2024).
Hit rate of the full screen: of about 2,000 compounds, about 110 (5.5%) showed an effect of 50% or more. The list shows a part of the results.

Target: Genome polyprotein (dengue virus type 2) (UniProt P29990)
[1] = Thailand/16681/1984, Concentration 25.0 uM, Number of replicates 1.0

Q: Which results are given for `Cc1cc(CO)c2cccc(CC(=O)Nc3cc(C)[nH]n3)c2n1`?
A: inhibition (Thailand/16681/1984, Concentration 49.95 uM, Number of replicates 2.0, Standard deviation 0.6660500187655393 %): 4.74%; inhibition (Thailand/16681/1984, Concentration 99.9 uM, Number of replicates 2.0, Standard deviation 2.9944546877986085 %): 12.6%

Q: What does the source list for `Cc1cnccc1NC(=O)c1cnn(C2CC2)c1`?
A: inhibition (Thailand/16681/1984, Concentration 49.5 uM, Number of replicates 2.0, Standard deviation 1.5729085853089821 %): -4.23%; inhibition (Thailand/16681/1984, Concentration 99.01 uM, Number of replicates 2.0, Standard deviation 0.8719029819128717 %): -3.01%; inhibition (Thailand/16681/1984, Concentration 198.0 uM, Number of replicates 2.0, Standard deviation 1.2354679349014233 %): -1.49%

Q: How did the inhibition (Thailand/16681/1984, Concentration 49.5 uM, Number of replicates 2.0, Standard deviation 1.3389018645311606 %) turn out when `O=C(NCC1CCNCC1)c1cc2ccc(-c3ccoc3)cc2[nH]1` was run?
A: -6.77%

Q: What about the inhibition (Thailand/16681/1984, Concentration 99.01 uM, Number of replicates 2.0, Standard deviation 0.725737036927515 %) of the same compound?
A: -9.82%

Q: What does the source list for `CO[C@H]1C[C@@H](CNCc2nnc3ccccn23)C1`?
A: inhibition (Thailand/16681/1984, Concentration 49.5 uM, Number of replicates 2.0, Standard deviation 3.3533846096108033 %): 2.46%; inhibition (Thailand/16681/1984, Concentration 99.01 uM, Number of replicates 2.0, Standard deviation 3.7279623391860772 %): 0.715%; inhibition (Thailand/16681/1984, Concentration 198.0 uM, Number of replicates 2.0, Standard deviation 3.3163119519010373 %): 2.11%

Q: Which inhibition (Thailand/16681/1984, Concentration 49.5 uM, Number of replicates 2.0, Standard deviation 2.282349037497578 %) does the source give for `CCCCCC(=O)N[C@@H](Cc1ccc(C#N)cc1)C(=O)Nc1cccc(C(N)=O)c1` here?
A: -0.915%

Q: And the inhibition (Thailand/16681/1984, Concentration 99.01 uM, Number of replicates 2.0, Standard deviation 2.0289858707789463 %)?
A: -0.916%

Q: And the inhibition (Thailand/16681/1984, Concentration 198.0 uM, Number of replicates 2.0, Standard deviation 1.244964958033368 %)?
A: 0.809%

Q: For `O=Cc1ccc(N2CCC(C(=O)Nc3ccc4scnc4c3)CC2)cc1`, which inhibition [1] is on record?
A: 13%

Q: With `CNC(=O)c1cc(Cl)ccc1NS(=O)(=O)c1ccc(C(=O)N2CCOCC2)cc1` as the compound, how does the inhibition (Thailand/16681/1984, Concentration 49.5 uM, Number of replicates 2.0, Standard deviation 0.9242131636205312 %) read?
A: 0.016%

Q: And the inhibition (Thailand/16681/1984, Concentration 99.01 uM, Number of replicates 2.0, Standard deviation 0.5448647637736805 %)?
A: 0.743%

Q: What about the inhibition (Thailand/16681/1984, Concentration 198.0 uM, Number of replicates 2.0, Standard deviation 0.08706358790592401 %) of the same compound?
A: 3.74%

Q: For `COC1CN(C(=O)c2cc(Cl)ccc2NS(=O)(=O)c2ccc(Oc3ccccc3Cl)cc2)C1`, which inhibition (Thailand/16681/1984, Concentration 49.5 uM, Number of replicates 2.0, Standard deviation 0.43340110085934463 %) is on record?
A: 13.9%

Q: What about the inhibition (Thailand/16681/1984, Concentration 99.01 uM, Number of replicates 2.0, Standard deviation 0.8668022017186893 %) of the same compound?
A: 27.6%

Q: And the inhibition (Thailand/16681/1984, Concentration 198.0 uM, Number of replicates 2.0, Standard deviation 1.1631532151634014 %)?
A: 43.9%

Q: How did the inhibition (Thailand/16681/1984, Concentration 49.95 uM, Number of replicates 2.0, Standard deviation 0.5871204354474296 %) turn out when `Cc1cc(CO)c2cccc(CC(=O)N[C@H](Cc3c[nH]cn3)C(=O)O)c2n1` was run?
A: 9.25%

Q: What about the inhibition (Thailand/16681/1984, Concentration 99.9 uM, Number of replicates 2.0, Standard deviation 0.6044303147182479 %) of the same compound?
A: 24.8%

Q: `O=Cc1ccc(N2CCC(C(=O)N[C@H](CO)Cc3ccc(Cl)cc3)CC2)cc1` was tested. Which inhibition [1] did it give?
A: 14.2%

Q: With `Cc1cc(CO)c2cccc(Cc3cccc(C(=O)N4CC5(CCCOC5)C4)c3)c2n1` as the compound, how does the inhibition (Thailand/16681/1984, Concentration 49.95 uM, Number of replicates 2.0, Standard deviation 0.7330249435314733 %) read?
A: -1.03%

Q: And the inhibition (Thailand/16681/1984, Concentration 99.9 uM, Number of replicates 2.0, Standard deviation 0.45993726244398564 %)?
A: 3.33%

Q: How did the inhibition (Thailand/16681/1984, Concentration 49.95 uM, Number of replicates 2.0, Standard deviation 1.6403651221128503 %) turn out when `Cc1cc(CO)c2cccc(NC(=O)[C@@H]3CCCC[C@H]3C(=O)O)c2n1` was run?
A: 4.53%

Q: What about the inhibition (Thailand/16681/1984, Concentration 99.9 uM, Number of replicates 2.0, Standard deviation 0.7343808497949172 %) of the same compound?
A: 11.1%

Q: `COCc1cc(-c2ccccc2C(=O)Nc2cnn(C)c2)ccn1` was tested. Which inhibition (Thailand/16681/1984, Concentration 49.5 uM, Number of replicates 2.0, Standard deviation 1.4111132401966338 %) did it give?
A: -5.45%

Q: What about the inhibition (Thailand/16681/1984, Concentration 99.01 uM, Number of replicates 2.0, Standard deviation 1.6255328031848963 %) of the same compound?
A: -5.34%

Q: And the inhibition (Thailand/16681/1984, Concentration 198.0 uM, Number of replicates 2.0, Standard deviation 0.730186058256325 %)?
A: -4.12%

Q: With `O=Cc1ccc(N2CCC(C(=O)N3CCO[C@@H](c4ccccc4)C3)CC2)cc1` as the compound, how does the inhibition [1] read?
A: 8.68%

Q: How did the inhibition [1] turn out when `Cc1noc([C@@H]2CCCCN2C(=O)C2CCN(c3ccc(C=O)cc3)CC2)n1` was run?
A: 15%

Q: Which results are given for `c1ccc2c([C@H]3CCN(C[C@H]4CCCOC4)C3)c[nH]c2c1`?
A: inhibition (Thailand/16681/1984, Concentration 49.5 uM, Number of replicates 2.0, Standard deviation 0.2640667803664584 %): -0.786%; inhibition (Thailand/16681/1984, Concentration 99.01 uM, Number of replicates 2.0, Standard deviation 0.5290885240264768 %): -1.17%; inhibition (Thailand/16681/1984, Concentration 198.0 uM, Number of replicates 2.0, Standard deviation 0.7993630294164077 %): 0.291%

Q: With `CNC(=O)c1cnncc1NS(=O)(=O)c1ccc(Oc2ccccc2Cl)cc1` as the compound, how does the inhibition (Thailand/16681/1984, Concentration 49.5 uM, Number of replicates 2.0, Standard deviation 2.9688082409176766 %) read?
A: 2.22%

Q: What about the inhibition (Thailand/16681/1984, Concentration 99.01 uM, Number of replicates 2.0, Standard deviation 2.2862743420867915 %) of the same compound?
A: 7.71%

Q: What about the inhibition (Thailand/16681/1984, Concentration 198.0 uM, Number of replicates 2.0, Standard deviation 2.701916446857586 %) of the same compound?
A: 19.5%

Q: What does the source list for `c1cc(CN2CCOC[C@@H]2Cc2c[nH]c3ccccc23)c2[nH]ncc2c1`?
A: inhibition (Thailand/16681/1984, Concentration 49.5 uM, Number of replicates 2.0, Standard deviation 0.0760431985446895 %): 1.44%; inhibition (Thailand/16681/1984, Concentration 99.01 uM, Number of replicates 2.0, Standard deviation 0.06426871776989805 %): 3.71%; inhibition (Thailand/16681/1984, Concentration 198.0 uM, Number of replicates 2.0, Standard deviation 0.6000060757363623 %): 3.93%

Q: Which results are given for `Cn1ccc(NS(=O)(=O)c2ccc(Oc3ccccc3)cc2)n1`?
A: inhibition (Thailand/16681/1984, Concentration 49.5 uM, Number of replicates 2.0, Standard deviation 0.1825498020182651 %): -5.09%; inhibition (Thailand/16681/1984, Concentration 99.01 uM, Number of replicates 2.0, Standard deviation 1.2530956014100136 %): -3.8%; inhibition (Thailand/16681/1984, Concentration 198.0 uM, Number of replicates 2.0, Standard deviation 2.341174068313809 %): -2.6%

Q: For `CC(C)N(C[C@H](O)c1ccc(O)c(O)c1)C(=O)C1CCN(c2ccc(C=O)cc2)CC1`, which inhibition [1] is on record?
A: 14.1%

Q: Which inhibition (Thailand/16681/1984, Concentration 49.95 uM, Number of replicates 2.0, Standard deviation 3.8383177085719704 %) does the source give for `Nc1ccc(Cl)c2cccnc12` here?
A: -6.59%

Q: What about the inhibition (Thailand/16681/1984, Concentration 99.9 uM, Number of replicates 2.0, Standard deviation 5.003138959022175 %) of the same compound?
A: -3.71%

Q: With `Cc1nn(Cc2cccnc2F)cc1C1CCNCC1` as the compound, how does the inhibition (Thailand/16681/1984, Concentration 49.5 uM, Number of replicates 2.0, Standard deviation 2.01751691250901 %) read?
A: -2.03%

Q: And the inhibition (Thailand/16681/1984, Concentration 99.01 uM, Number of replicates 2.0, Standard deviation 2.3800395844705995 %)?
A: -1.46%

Q: What about the inhibition (Thailand/16681/1984, Concentration 198.0 uM, Number of replicates 2.0, Standard deviation 0.22993769543518583 %) of the same compound?
A: -2.53%

Q: For `Cc1cc(CO)c2cccc(NCCc3c(C)n[nH]c3C)c2n1`, which inhibition (Thailand/16681/1984, Concentration 49.95 uM, Number of replicates 2.0, Standard deviation 0.9348671493542363 %) is on record?
A: 1.06%

Q: What about the inhibition (Thailand/16681/1984, Concentration 99.9 uM, Number of replicates 2.0, Standard deviation 1.0610742224195924 %) of the same compound?
A: 7.93%

Q: For `Cc1cccc(NC(=O)CNC(=O)C2CCN(c3ccc(C=O)cc3)CC2)c1C`, which inhibition [1] is on record?
A: 13%

Q: What does the source list for `CN1CCCC[C@@H](CNCc2nnc3ccccn23)C1=O`?
A: inhibition (Thailand/16681/1984, Concentration 49.5 uM, Number of replicates 2.0, Standard deviation 0.3731332148311917 %): -1.86%; inhibition (Thailand/16681/1984, Concentration 99.01 uM, Number of replicates 2.0, Standard deviation 1.4203136864923194 %): 0.115%; inhibition (Thailand/16681/1984, Concentration 198.0 uM, Number of replicates 2.0, Standard deviation 3.0558410668925435 %): 0.508%

Q: For `O=Cc1ccc(N2CCC(C(=O)N[C@H]3Cc4ccc(Br)cc4C3)CC2)cc1`, which inhibition [1] is on record?
A: 3.19%
